# Measured values from PubChem BioAssay AID1508642 (National Center for Advancing Translational Sciences (NCATS), 2021).
# About 200 (0.47%) of roughly 43,000 compounds were called active. Inconclusive results (about 12%) are left out. Calls follow the shape of the dose curve; as a rule, active = well fitted cell-killing curve with a large enough effect; inconclusive = small, poorly fitted or top-dose-only effect, or effect the other way; inactive = flat fitted curve, though single readings scatter. The list shows a part of the results.
# Experiment: Cell viability qHTS assay in S16 Pmp22-F2sN cells; also: nearly all actives have a fitted effect of over 65% in size
# Settings: S16 Pmp22-F2sN Schwann cells (luciferase reporters placed in the Pmp22 gene) viability, CellTiter-Glo, 24 h; series mostly up to 57.5 µM; activity change, negative = cytotoxicity: at the top concentration
# How it was run: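 Rat S16 Schwann reporter line, 24 h treatment with library compounds delivered at 23 nL per well. Cell viability by CellTiter-Glo luminescence.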
# % is scaled to controls: 0 for no effect and ±100 for the full control effect.
row,SMILES,"activity change, negative = cytotoxicity"
1,CCc1cc2c(cc3c(=O)n(CC(=O)NC(C)C)nc(CC)n32)s1,inactive: 12.4%
2,COc1ccc(CNC(=O)CSCc2ccc(C)cc2)c(OC)c1,inactive: 0.235%
3,COc1cc2c(cc1OC)n(CC(=O)Nc1ccccc1)c(=O)n1nc(-c3ccccc3)nc21,inactive: 1.19%
4,COC(=O)c1ccc(NC(=O)C(=O)NCCc2sc3nc(-c4ccc(OC)cc4)nn3c2C)cc1,inactive: 1.11%
5,O=C(CCn1c(=O)c2cccn2c2cccnc21)NCc1ccc(Cl)cc1,inactive: 13.4%
6,COc1ccccc1NC(=O)C1=C(C)Nc2c(C(=O)Nc3cccc(C)c3)cnn2C1c1ccccc1C (stereo unspecified),inactive: -5.09%
7,CC(CC(=O)NCc1ccc(Cl)cc1Cl)CC1=NS(=O)(=O)c2ccccc2N1 (stereo unspecified),inactive: 9.98%
8,Cc1ccc(Nc2nc3c(S(=O)(=O)c4ccccc4)nnn3c3ccc(Cl)cc23)c(C)c1,inactive: -1.91%
9,Cc1cccc(OC(=O)c2nc(SCc3ccccc3F)ncc2Cl)c1,inactive: -9.37%
10,CCOC(=O)c1ccc(NC(=O)Cn2cc(C(=O)c3cccs3)c3ccccc32)cc1,inactive: 17.8%
11,COc1ccc(-c2cc(C(F)(F)F)n3nc(C(=O)Nc4sc5c(c4C(=O)OC(C)C)CCCC5)cc3n2)cc1OC,inactive: 2.57%
12,COc1ccc(N2CCN(C(CNC(=O)c3cccc(OC)c3)c3cccnc3)CC2)cc1 (stereo unspecified),inactive: 5.72%
13,CCCCOC(=O)c1c(C)oc2ccc(NS(=O)(=O)c3ccc(F)cc3C)cc12,inactive: 5.79%
14,CCOc1ccc(CN(C(=O)c2cc(=O)c3cc(Cl)ccc3o2)C2CCS(=O)(=O)C2)cc1 (stereo unspecified),inactive: 23.5%
15,CCc1ccc(CNc2ncnc3onc(-c4ccc(Cl)cc4)c23)cc1,inactive: -6.21%
16,Cn1c(C(=O)N2CCCC(C(=O)N3CCN(c4ccccc4)CC3)C2)cc2sccc21 (stereo unspecified),inactive: 0.6%
17,CCCCNC(=O)CSC1=Nc2ccccc2C2=NC(CCC(=O)NCc3ccccc3OC)C(=O)N12 (stereo unspecified),inactive: -18.3%
18,CCc1ccc(NC(=O)CSc2cn(CC(=O)N3CCOCC3)c3ccccc23)cc1,inactive: 9.65%
19,COc1ccc(NC(=O)Cn2c(=O)n(-c3ccc(C)c(C)c3)c(=O)c3c4c(sc32)CCCCC4)cc1Cl,inactive: 5.08%
20,CCN(CC)C(=O)C1CCN(c2cc(C)nc3c(-c4ccc(OC)c(OC)c4)c(C)nn23)CC1,inactive: -0.0269%
21,O=C(NCC(c1cccnc1)N1CCc2ccccc2C1)C(=O)Nc1ccc(F)cc1F (stereo unspecified),inactive: -14.2%

row,SMILES,"activity change, negative = cytotoxicity"
1,Cc1cccc(-c2nc(C)c(CCNC(=O)c3cccs3)s2)c1,inactive: -0.344%
2,CC(C)c1ccc(NC(=O)CCNS(=O)(=O)c2ccc3c(c2)oc(=O)n3C)cc1,inactive: -2.62%
3,Cc1ccc(-n2ncc(C(=O)N3CCN(C(=O)c4ccco4)CC3)c2C2CCN(C(=O)OC(C)(C)C)CC2)cc1,inactive: -8.83%
4,COC(=O)c1nnn(-c2ccc(Cl)cc2)c1C(=O)OC,inactive: -5.17%
5,O=C(CCS(=O)(=O)c1nc(-c2ccc3c(c2)OCO3)cc(C(F)(F)F)n1)Nc1ccc(F)cc1F,inactive: 1.62%
6,O=C(c1ccc2c(c1)N(Cc1cccc(Cl)c1)C(=O)c1ccccc1S2(=O)=O)N1CCCCCC1,inactive: -14.4%
7,Cc1cccc(CCNC(=O)c2nn(C)c3c2CSc2ccccc2-3)c1,inactive: 1.63%
8,O=C(CSc1oc(-c2ccc(F)cc2)nc1S(=O)(=O)c1ccc(Cl)cc1)c1ccccc1,inactive: -1.42%
9,COc1cccc(-c2cn3c(n2)sc2cc(C(=O)NCCC4=CCCCC4)ccc23)c1,inactive: -14.8%
10,COc1ccc(Cl)cc1NC(=O)NCc1noc2ccccc12,inactive: -4.98%
11,Cc1ccc2c(c1)N(C(=O)N1CCC(C(=O)NCc3cccs3)CC1)CC(C)O2 (stereo unspecified),inactive: -1.52%
12,COc1ccc(CNC(=O)c2cc3c(=O)[nH]c4ccccc4c3n2C)c(OC)c1,inactive: -0.197%
13,Cc1cccc(N(CC(=O)NCCSc2ccc(Cl)cc2)S(C)(=O)=O)c1C,inactive: 3.35%
14,Cc1ccc(-c2c(C(=O)N(C)Cc3ccccc3)oc(=O)c3ccccc23)cc1,inactive: 24%
15,O=C(CSc1ccccc1)NCc1ccc2c(c1)CCN2C(=O)c1ccc(F)cc1,inactive: 4.63%
16,O=C(Cc1ccccc1)N(Cc1cccnc1)c1nc2ccc(F)cc2s1,inactive: -22.1%
17,COc1ccc(CNC(=O)c2cc3c(=O)n(C)c4ccccc4c3n2C)cc1,inactive: -4.84%
18,COCCNC(=O)c1nn(-c2ccc(Cl)cc2)nc1CO,inactive: -0.299%
19,CCc1ccc(CNC(=O)CCCN2C(=O)c3cccnc3Oc3ccc(Cl)cc32)cc1,inactive: -21.5%
20,O=C(COc1ccccc1)Nc1nnc(S(=O)(=O)N2CCCCCC2)s1,inactive: 5.22%
21,CCOc1cc(C2CC(=O)Nc3nc(SCc4ccccc4)[nH]c(=O)c32)ccc1O (stereo unspecified),inactive: -0.0544%

row,SMILES,"activity change, negative = cytotoxicity"
1,O=C(Nc1cccc2cccnc12)c1ccc(F)cc1,inactive: -0.45%
2,CCc1ccc2oc(-c3ccc(NC(=O)c4cc(OC)c(OC)c(OC)c4)cc3)nc2c1,inactive: 1.24%
3,CCOC(=O)c1ccc(N2C(=O)c3[nH]nc(-c4ccc(OCC)cc4)c3C2c2ccc(OC)cc2OC)cc1 (stereo unspecified),inactive: 11%
4,CC(C)c1ccccc1NC(=O)CN1C(=O)c2cccc3cccc1c23,inactive: -7.93%
5,CCC(=O)Nc1ccc2nc(SCc3ccc(C)cc3)sc2c1,inactive: -2.49%
6,Cc1nc(N2CCCC2)c2c(C(=O)N3CCN(c4cccc(C)c4C)CC3)c(C)oc2n1,inactive: -12.8%
7,CC(C)c1cc(-c2nc(-c3ccccc3)no2)n[nH]1,inactive: 1.96%
8,CN(CC(=O)Nc1ccccc1Cl)S(=O)(=O)c1ccc(C(=O)N2CCOCC2)s1,inactive: -0.142%
9,COc1ccc(S(=O)(=O)N2CCN(Cc3ccc4c(c3)OCO4)CC2)cc1OC,inactive: 5.45%
10,CCCSCCCNC(=O)c1ccc2c(c1)nc1n2CCCCC1,inactive: 2.83%
11,Cc1ccc(Nc2cc(C)c(C#N)c3nc4ccccc4n23)cc1Cl,inactive: 5.45%
12,O=C(CN1CCSc2ccccc21)N1CCN(c2cccc(Cl)c2)CC1,inactive: -1.49%
13,COC(=O)c1cnn(-c2ccc(C(=O)Nc3ccc(C(C)=O)cc3)cc2)c1N,inactive: 1.09%
14,Cc1ccc(-n2ncc3c(NC4CCCCC4)ncnc32)cc1,inactive: 19.4%
15,Cc1ccc(Cc2nc3ccccc3nc2SCC(=O)Nc2cccc(C(F)(F)F)c2)cc1,inactive: 14.5%
16,CC(C)(C)c1ccc(S(=O)(=O)NCc2nc3cccnc3n2Cc2ccccc2Cl)cc1,inactive: -19.9%
17,Cc1nn(CC(=O)NCCc2ccccc2Cl)c(=O)c2nn(-c3ccccc3)c(C)c12,inactive: -9.3%
18,COc1ccc(CNCc2c(C(=O)O)c(C)n(Cc3ccc(Cl)cc3)c2C)c(OC)c1,inactive: -17.7%
19,Cc1ccc2c(c1)c1c(c(=O)n(-c3ccccc3C)c(=O)n1CC(=O)NCCC1=CCCCC1)n2C,inactive: 22.2%
